Laboratory results from PubChem BioAssay (NCATS).
This list was built around the results that the source calls inconclusive (neither active nor inactive); the mix of calls is not that of the screen. For some of these results: A potency beside an inconclusive call is a rough fit, not a confirmed value. Activity calls are given as the source filed them. Unless noted, calls come from the whole dose curve; as a rule, active = well fitted cell-killing curve with a large enough effect; inconclusive = small, poorly fitted or top-dose-only effect; inactive = flat fitted curve, though single readings scatter.

How the values were obtained:
[1] = Cell Viability - Jurkat (AID 426;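 active = dose-dependent loss of cell ATP signal giving a full or clear fitted curve, ranked by lower potency value; inconclusive = weak partial curve or response only at the top dose; inactive = no loss of viability signal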; note: potency is the fitted concentration of half-maximal effect); settings: qHTS
Method in brief: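 Jurkat (clone E6-1, human T-cell leukemia) cells, 5000/well in complete medium, were exposed to compound for 40 hr at 37 °C. Viability was read as intracellular ATP by CellTiter-Glo luminescence; AC50 came from Hill fits of concentration-response data.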

[2] = biological target: Mitogen-activated protein kinase 10 (Mus musculus) (UniProt Q61831); experiment: JNK3 AlphaScreen Assay (AID 530; active = well fitted curve in either direction with a large enough effect, not every such curve was filed as active; inconclusive = small, poorly fitted or top-dose-only effect, or another doubt;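 note: kinase came from lysate of stimulated human HepG2 cells; signal reports phosphorylation of biotinylated GST-cJun 1-79 at Ser73 with 10 µM ATP; potency is the fitted concentration of half-maximal effect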); settings: JNK3 lysate, c-Jun phosphorylation; activity change, negative = inhibition: at 57.1 µM (top of the series)
Method in brief: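 qHTS format: compounds tested as titrations against IL-1beta/TNF-alpha-activated HepG2 lysate JNK3 with biotin-GST-cJun substrate and 10 uM ATP at room temperature. Loss of anti-phospho-cJun AlphaScreen signal indicates inhibition.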

[3] = Cell Viability - LYMP2-013 (AID 970); settings: LYMP2-013 lymphoblastoid cells viability; activity change, negative = cytotoxic: at 92.2 µM (top of the series);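 note: 0% = DMSO only and full inhibition = tetraoctylammonium bromide control; nearly all actives have a fitted effect of over 55% in size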
Method in brief: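 Human lymphoblastoid cells, 2500/well, were preincubated 5 hr at 37 C, then treated with compounds for 24 hr at 37 C in complete medium. Intracellular ATP was read by CellTiter-Glo luminescence; AC50 from Hill-equation fits of concentration-response data.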

[4] = Cell Viability - LYMP2-017 (AID 972); settings: LYMP2-017 lymphoblastoid cell viability; series mostly up to 92.2 µM; note: % is set by controls: 0 for no effect and ±100 for the full control effect; nearly all actives have a fitted effect of over 55% in size
Method in brief: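 Human lymphoblastoid cells (2500/well) were seeded in complete medium, held 5 hr at 37 C, then exposed to compounds for 24 hr at 37 C. Intracellular ATP was read by CellTiter-Glo luminescence after 30 min at room temperature, with AC50 values from Hill-equation fits.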

[5] = biological target: Peroxisome proliferator-activated receptor gamma (Homo sapiens) (UniProt P37231); experiment: qHTS assay for small molecule agonists of peroxisome proliferator-activated receptor gamma signaling (AID 588536; active = well fitted curve in the direction sought with a large enough effect in the signal ratio, with a control signal flat, not every such curve was filed as active; inconclusive = small, poorly fitted or top-dose-only effect, or effect the other way, or a change in a side signal; inactive = no such curve, though single readings can be large or run the other way; the % refers to the signal ratio;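 note: 0% = DMSO basal wells and 100% = rosiglitazone at 2 µM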); settings: HEK293 PPARg-UAS-bla, beta-lactamase ratio, 16 h; activation: at 76.7 µM (top of the series), percent of rosiglitazone response, DMSO as zero
Chain of UniProt P37231 (P37231 whole entry, looked up): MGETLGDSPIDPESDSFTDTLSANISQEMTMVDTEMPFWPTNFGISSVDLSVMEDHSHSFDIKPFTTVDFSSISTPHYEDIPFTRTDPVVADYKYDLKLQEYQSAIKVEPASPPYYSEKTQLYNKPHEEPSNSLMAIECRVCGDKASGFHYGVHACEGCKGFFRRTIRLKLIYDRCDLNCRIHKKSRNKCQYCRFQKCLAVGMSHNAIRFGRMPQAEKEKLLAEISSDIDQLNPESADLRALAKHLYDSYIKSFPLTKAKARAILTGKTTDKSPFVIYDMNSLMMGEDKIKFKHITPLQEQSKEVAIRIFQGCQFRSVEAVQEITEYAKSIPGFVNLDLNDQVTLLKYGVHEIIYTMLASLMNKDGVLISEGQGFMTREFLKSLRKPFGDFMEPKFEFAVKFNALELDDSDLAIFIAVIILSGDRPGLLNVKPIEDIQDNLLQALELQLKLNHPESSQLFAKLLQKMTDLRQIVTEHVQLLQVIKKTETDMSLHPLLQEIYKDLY
Method in brief: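 GeneBLAzer PPAR-gamma-UAS-bla HEK293 cells in 1% charcoal/dextran-treated FBS medium were treated 16 h at 37 C with compounds. Beta-lactamase activity was read by CCF4 ratio (460/530 nm). Response was normalized to 2 uM rosiglitazone (100%) and DMSO, then Hill-fitted for EC50 and efficacy.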

[6] = biological target: Peroxisome proliferator-activated receptor gamma (Homo sapiens) (UniProt P37231); experiment: qHTS assay for small molecule antagonists of peroxisome proliferator-activated receptor gamma signaling (AID 588537; active = well fitted inhibition curve with a large enough effect in the signal ratio, with a control signal flat, not every such curve was filed as active; inconclusive = small, poorly fitted or top-dose-only effect, or effect the other way, or a change in a side signal; the % refers to the signal ratio;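 note: reporter cells co-stimulated with 50 nM rosiglitazone agonist during compound treatment; % of control where 0% means no effect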); settings: HEK293 PPARg-UAS-bla, beta-lactamase ratio, antagonist mode; activity, negative = inhibition: at 76.8 µM (top of the series)
Method in brief: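 Step one: plate 3000 HEK293 UAS-bla cells per well in medium with 1% stripped serum and hold 6-6.5 h at 37 C. Step two: add compound and 50 nM agonist for 16 h. Step three: CCF4 loading, fluorescence read.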

[7] = biological target: Retinoic acid receptor RXR-alpha (Homo sapiens) (UniProt P19793); experiment: qHTS assay for small molecule antagonists of retinoid X receptor alpha signaling (AID 588546; active = well fitted inhibition curve with a large enough effect in the signal ratio, with a control signal flat, not every such curve was filed as active; inconclusive = small, poorly fitted or top-dose-only effect, or effect the other way, or a change in a side signal; inactive = no such curve, though single readings can be large or run the other way; the % refers to the signal ratio;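 note: cells stimulated with 9-cis-retinoic acid as agonist; % is set by controls: 0 for no effect and ±100 for the full control effect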); settings: HEK293T RXRa-UAS-bla, beta-lactamase ratio, antagonist mode
Chain of UniProt P19793 (P19793 whole entry, looked up): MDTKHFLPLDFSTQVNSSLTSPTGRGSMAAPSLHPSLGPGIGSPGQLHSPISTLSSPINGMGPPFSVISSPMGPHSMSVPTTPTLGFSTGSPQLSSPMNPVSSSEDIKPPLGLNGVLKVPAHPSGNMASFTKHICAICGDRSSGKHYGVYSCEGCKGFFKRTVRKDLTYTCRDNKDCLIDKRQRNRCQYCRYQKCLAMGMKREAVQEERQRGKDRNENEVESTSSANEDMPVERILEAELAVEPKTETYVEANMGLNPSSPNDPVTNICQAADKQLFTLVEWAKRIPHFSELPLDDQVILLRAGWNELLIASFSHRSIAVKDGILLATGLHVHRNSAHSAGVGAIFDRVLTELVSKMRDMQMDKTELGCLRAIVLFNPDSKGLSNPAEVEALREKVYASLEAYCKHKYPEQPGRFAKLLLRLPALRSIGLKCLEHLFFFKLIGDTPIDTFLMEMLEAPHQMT
Method in brief: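 Beta-lactamase reporter inhibition, read as CCF4 fluorescence ratio (ex 405, em 460/530 nm) after 2 h at RT. HEK293T UAS-bla cells, 2500/well, were stimulated with 9-cis-RA at 500 or 100 nM final alongside test compound for 18 h at 37 C.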

[8] = biological target: Thyroid hormone receptor beta (Homo sapiens) (UniProt P10828); experiment: qHTS assay for small molecule antagonists of thyroid hormone receptor beta signaling (AID 588547; active = well fitted inhibition curve with a large enough effect in the signal ratio, with a control signal flat, not every such curve was filed as active; inconclusive = small, poorly fitted or top-dose-only effect, or effect the other way, or a change in a side signal; the % refers to the signal ratio;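 note: cells stimulated with 0.4 nM T3 agonist during compound exposure; % is set by controls: 0 for no effect and ±100 for the full control effect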); settings: TR-UAS-bla HEK293, beta-lactamase ratio, antagonist mode, 18 h
Chain of UniProt P10828 (P10828 whole entry, looked up): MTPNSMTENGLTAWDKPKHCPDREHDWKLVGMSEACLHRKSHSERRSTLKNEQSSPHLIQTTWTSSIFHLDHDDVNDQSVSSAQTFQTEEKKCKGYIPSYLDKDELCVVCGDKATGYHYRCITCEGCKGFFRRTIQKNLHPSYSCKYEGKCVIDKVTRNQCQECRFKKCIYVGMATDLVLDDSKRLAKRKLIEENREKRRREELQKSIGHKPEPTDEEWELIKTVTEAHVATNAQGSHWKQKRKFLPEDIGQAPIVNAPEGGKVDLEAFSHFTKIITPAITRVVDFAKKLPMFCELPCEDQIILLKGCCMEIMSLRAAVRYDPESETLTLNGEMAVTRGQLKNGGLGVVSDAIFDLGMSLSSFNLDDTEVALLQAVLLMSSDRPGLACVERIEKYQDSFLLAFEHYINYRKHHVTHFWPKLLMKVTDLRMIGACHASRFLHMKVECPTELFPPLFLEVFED
Method in brief: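 TR-UAS-bla GripTite HEK293 cells in 2% charcoal/dextran FBS medium; compounds 0.59 nM to 92 uM with T3 at 0.4nM final, 18 h at 37 C. Beta-lactamase read by CCF4 fluorescence (460/530 nm); Hill fits gave IC50 and efficacy.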

[9] = qHTS assay for small molecule disruptors of the mitochondrial membrane potential - 5 hr assay (AID 651755; calls by dose curve; note: % is set by controls: 0 for no effect and ±100 for the full control effect; nearly all actives have a fitted effect of over 40% in size); settings: JC-1-type ratio dye; ratio change, negative = disruption: at 92.2 µM (top of the series)
Method in brief: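 HepG2 cells (2,000/well), attached overnight, exposed to compound 5 hr at 37C, then Mito-MPS dye 30 min. Fluorescence read for monomers (490/535 nm) and aggregates (540/590 nm).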

[10] = qHTS assay to identify small molecules that stimulate interleukin-8 (IL-8) secretion (AID 651758; active = well fitted activation curve with a large enough effect in the signal ratio; inconclusive = small, poorly fitted or top-dose-only effect, or effect the other way, or a change in a side signal; the % refers to the signal ratio; note: 0% is about no effect); settings: HTRF ratio (665/615); activation: at 92.2 µM (top of the series)
Method in brief: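 THP-1 cells (2000/well) exposed to compound 16 h at 37 C; secreted IL-8 then detected by HTRF with cryptate- and XL665-labelled anti-IL-8 antibody pair after 1-3 h at room temperature.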
Tags give direction and shape of the fitted curve.

c1ccncc1
inactive: Potency [1] > 92 µM | Potency [3] | Potency [4] | Potency [5] | Potency [6] | activity change % (negative = inhibition) [8] -8.3% | Potency [9]
inconclusive: Potency [2] 15.8 µM [activator, full curve, poor fit] | max response [7] -0.484% | activation [10] -1.02%
